According to US20030224453A1, “Structural models for cytoplasmic domains of transmembrane receptors” (priority 1998, published 2003):

Columns and labels:
filamin (ABP-280) = target: T1, filamin (ABP-280) (Homo sapiens, UniProt P21333); assay: Binding of resin-bound cytoplasmic domain model proteins to purified filamin; details: result in words
T1 construct: Human uterus filamin (ABP-280) was prepared as a 1.5 mg/ml solution; from tissue; host or cells: human uterus
Procedure: (§1) Purified recombinant cytoplasmic domain proteins (500 μg) were dissolved in a mixture of 5 ml 20 mM Pipes, 50 mM NaCl, pH 6.8 and 1 ml 0.1 M sodium acetate, pH 3.5 and bound overnight to 80 μl of Ni^2+ saturated His-bind resin (Novagen). […] Resins were washed twice with 20 mM Pipes, 50 mM NaCl, pH 6.8, and stored at 4° C. with 0.1% sodium azide as suspensions with one volume of this buffer. Fifty microliters of such a suspension were added to 4.5 ml of cell lysates which had been diluted tenfold with buffer A containing 0.05% TRITON X-100, 3 mM MgCl2 and protease-inhibitors. After incubation overnight at 4° C., resins were washed five times with this buffer and finally heated in 50 μl of reducing sample buffer for SDS PAGE. Samples were separated on 4-20% SDS polyacrylamide gels (NOVEX) and either stained with Coomassie or transferred to Immobilon P membranes (Amersham Corp., Arlington Hts, Ill.). Membranes were blocked with TBS, 5% nonfat-mild powder and stained with streptavidin-peroxidase (VECTASTAIN) or specific antibodies. Bound peroxidase was detected with an enhanced chemiluminescence kit (Amersham).
Human uterus filamin (ABP-280) was prepared as a 1.5 mg/ml solution in 0.6 M KCl, 0.5 mM ATP, 0.5 mM DTT, 10 mM imidazole, pH 7.5. […]

talin = talin (Homo sapiens, UniProt Q9Y490); assay: Binding of resin-bound cytoplasmic domain model proteins to purified talin; set-up: Talin was purified from human platelets in accordance with well known procedures; from tissue; host or cells: human platelets; details: result in words
talin, sequence (Q9Y490 whole entry, the tested form may be a part): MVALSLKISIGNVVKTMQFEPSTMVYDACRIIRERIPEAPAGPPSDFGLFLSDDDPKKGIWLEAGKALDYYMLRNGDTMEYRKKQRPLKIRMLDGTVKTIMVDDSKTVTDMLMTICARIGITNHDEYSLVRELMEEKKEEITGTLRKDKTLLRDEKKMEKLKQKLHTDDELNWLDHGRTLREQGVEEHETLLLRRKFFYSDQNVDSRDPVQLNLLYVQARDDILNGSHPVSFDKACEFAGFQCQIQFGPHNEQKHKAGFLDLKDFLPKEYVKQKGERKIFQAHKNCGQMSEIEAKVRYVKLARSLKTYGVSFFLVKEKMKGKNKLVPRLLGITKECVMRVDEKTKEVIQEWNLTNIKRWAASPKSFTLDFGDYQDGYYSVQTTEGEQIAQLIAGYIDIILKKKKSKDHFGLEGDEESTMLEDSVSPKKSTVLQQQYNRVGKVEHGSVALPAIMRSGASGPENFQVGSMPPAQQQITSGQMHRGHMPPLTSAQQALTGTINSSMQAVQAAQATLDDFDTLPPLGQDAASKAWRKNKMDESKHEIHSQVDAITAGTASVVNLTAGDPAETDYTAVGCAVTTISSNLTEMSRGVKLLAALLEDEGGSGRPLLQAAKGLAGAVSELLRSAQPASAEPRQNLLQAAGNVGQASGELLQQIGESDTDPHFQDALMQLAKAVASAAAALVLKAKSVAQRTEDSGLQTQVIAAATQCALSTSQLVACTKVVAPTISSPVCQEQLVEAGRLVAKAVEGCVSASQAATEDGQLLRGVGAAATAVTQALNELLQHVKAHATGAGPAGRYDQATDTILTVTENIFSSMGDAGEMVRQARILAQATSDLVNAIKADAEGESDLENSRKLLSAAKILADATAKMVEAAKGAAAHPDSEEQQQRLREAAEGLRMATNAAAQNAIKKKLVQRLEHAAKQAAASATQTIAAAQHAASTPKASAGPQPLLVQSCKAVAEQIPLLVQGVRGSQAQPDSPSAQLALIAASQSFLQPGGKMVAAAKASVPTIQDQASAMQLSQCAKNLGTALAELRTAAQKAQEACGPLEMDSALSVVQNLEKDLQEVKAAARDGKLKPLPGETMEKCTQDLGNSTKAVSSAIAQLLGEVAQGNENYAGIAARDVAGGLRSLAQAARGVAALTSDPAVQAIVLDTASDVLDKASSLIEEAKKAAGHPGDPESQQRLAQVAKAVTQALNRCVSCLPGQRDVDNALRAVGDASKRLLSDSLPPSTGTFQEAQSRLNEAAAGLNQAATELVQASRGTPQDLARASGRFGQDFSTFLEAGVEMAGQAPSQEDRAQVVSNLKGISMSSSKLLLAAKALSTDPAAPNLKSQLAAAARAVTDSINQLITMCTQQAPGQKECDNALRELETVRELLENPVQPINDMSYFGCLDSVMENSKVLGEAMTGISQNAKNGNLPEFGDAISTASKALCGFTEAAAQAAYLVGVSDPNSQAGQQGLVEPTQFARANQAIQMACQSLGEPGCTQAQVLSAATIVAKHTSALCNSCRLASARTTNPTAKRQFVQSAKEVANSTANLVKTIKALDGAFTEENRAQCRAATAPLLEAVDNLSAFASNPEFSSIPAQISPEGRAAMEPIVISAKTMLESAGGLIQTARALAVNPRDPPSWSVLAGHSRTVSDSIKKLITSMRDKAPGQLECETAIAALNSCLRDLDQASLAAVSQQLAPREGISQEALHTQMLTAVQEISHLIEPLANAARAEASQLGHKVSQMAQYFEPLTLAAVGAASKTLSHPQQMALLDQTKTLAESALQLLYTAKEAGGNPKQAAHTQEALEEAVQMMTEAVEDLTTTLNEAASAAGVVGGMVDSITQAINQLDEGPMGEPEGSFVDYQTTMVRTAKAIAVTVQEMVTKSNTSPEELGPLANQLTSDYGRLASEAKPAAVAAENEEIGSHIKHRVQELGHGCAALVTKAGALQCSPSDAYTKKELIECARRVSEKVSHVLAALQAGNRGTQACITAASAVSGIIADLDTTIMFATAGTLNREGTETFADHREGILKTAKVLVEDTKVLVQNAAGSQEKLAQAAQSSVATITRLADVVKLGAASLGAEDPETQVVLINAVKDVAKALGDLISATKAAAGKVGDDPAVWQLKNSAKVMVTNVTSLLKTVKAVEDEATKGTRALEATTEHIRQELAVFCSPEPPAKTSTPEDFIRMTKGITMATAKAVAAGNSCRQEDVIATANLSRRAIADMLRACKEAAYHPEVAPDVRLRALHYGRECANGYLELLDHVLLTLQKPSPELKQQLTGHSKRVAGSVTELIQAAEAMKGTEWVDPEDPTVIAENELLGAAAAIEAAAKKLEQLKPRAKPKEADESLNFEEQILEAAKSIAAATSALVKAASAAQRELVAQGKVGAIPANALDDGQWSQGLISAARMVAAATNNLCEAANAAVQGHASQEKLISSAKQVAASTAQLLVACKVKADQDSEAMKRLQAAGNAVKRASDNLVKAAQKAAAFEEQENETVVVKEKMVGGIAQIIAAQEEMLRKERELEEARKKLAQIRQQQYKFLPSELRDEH
Procedure: as §1
Talin was purified from human platelets in accordance with well known procedures with an additional purification step using chromatography on phosphocellulose and stored at 1 mg/ml in 10 mM NaCl, 50% glycerol. […]

T1 sequence (P21333 whole entry, the tested form may be a part): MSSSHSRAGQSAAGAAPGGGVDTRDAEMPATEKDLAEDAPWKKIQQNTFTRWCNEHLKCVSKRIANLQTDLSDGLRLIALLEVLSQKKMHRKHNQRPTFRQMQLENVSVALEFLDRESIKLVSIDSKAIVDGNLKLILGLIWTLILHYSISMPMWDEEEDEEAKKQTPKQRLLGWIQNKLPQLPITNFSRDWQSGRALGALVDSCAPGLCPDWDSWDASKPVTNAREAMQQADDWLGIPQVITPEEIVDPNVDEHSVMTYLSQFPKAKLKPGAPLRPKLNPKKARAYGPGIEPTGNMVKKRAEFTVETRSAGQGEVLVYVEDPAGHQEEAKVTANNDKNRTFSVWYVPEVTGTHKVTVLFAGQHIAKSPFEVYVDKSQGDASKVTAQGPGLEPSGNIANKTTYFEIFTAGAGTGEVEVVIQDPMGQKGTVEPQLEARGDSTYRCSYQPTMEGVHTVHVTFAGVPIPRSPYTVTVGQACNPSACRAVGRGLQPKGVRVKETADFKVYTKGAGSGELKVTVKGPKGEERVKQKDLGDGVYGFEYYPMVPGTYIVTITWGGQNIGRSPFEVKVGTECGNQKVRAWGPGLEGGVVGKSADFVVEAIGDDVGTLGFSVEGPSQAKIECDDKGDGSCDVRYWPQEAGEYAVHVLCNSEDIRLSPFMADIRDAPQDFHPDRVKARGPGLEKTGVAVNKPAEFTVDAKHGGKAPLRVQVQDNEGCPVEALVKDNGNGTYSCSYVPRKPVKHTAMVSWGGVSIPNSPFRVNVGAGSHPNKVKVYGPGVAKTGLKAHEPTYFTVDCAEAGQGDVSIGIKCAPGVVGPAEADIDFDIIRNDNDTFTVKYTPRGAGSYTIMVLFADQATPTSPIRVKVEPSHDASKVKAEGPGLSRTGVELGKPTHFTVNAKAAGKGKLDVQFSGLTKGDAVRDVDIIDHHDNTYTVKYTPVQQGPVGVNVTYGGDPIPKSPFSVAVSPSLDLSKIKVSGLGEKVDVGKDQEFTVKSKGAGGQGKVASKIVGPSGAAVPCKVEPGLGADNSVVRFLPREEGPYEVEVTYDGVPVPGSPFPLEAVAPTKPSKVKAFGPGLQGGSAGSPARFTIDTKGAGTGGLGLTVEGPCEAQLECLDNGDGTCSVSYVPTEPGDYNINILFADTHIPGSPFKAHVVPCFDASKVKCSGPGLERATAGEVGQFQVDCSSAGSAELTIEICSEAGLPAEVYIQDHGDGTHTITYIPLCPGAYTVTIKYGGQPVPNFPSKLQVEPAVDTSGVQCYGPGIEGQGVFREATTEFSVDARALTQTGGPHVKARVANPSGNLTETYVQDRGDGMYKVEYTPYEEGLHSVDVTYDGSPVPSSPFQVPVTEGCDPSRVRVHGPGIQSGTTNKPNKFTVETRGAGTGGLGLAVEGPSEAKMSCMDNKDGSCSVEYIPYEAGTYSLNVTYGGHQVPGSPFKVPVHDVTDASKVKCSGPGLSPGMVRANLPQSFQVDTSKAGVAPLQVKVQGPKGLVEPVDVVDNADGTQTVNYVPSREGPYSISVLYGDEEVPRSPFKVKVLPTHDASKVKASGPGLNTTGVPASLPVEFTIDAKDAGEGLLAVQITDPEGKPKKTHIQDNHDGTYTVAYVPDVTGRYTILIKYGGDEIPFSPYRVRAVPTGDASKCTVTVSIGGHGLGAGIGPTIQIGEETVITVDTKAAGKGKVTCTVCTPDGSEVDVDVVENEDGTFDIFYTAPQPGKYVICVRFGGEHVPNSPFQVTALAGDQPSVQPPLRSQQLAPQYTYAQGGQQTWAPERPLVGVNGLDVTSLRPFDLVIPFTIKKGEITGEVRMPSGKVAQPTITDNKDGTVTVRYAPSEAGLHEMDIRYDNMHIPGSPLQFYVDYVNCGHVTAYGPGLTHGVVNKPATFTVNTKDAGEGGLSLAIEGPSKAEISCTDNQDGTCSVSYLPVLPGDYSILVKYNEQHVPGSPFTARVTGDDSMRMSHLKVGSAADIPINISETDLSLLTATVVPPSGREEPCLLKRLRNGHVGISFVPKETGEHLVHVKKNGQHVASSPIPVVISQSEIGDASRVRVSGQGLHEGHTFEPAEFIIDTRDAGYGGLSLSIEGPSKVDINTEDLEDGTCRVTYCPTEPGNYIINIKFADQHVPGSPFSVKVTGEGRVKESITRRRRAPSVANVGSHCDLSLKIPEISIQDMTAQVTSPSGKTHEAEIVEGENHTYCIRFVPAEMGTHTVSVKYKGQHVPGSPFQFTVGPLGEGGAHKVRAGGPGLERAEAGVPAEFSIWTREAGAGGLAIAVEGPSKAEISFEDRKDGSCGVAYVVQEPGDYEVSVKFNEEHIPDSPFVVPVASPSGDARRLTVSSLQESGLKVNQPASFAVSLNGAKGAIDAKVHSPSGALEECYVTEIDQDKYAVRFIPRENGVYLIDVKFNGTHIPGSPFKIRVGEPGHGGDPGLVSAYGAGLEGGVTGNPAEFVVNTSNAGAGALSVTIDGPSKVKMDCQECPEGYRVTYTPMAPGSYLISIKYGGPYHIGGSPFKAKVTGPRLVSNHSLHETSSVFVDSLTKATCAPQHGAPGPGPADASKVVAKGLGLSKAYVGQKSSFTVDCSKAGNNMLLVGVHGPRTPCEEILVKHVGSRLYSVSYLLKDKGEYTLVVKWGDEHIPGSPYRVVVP

binding of purified filamin, comparison between constructs (filamin (ABP-280)): functionally reduced
binding of purified talin compared to G4-β1A (talin): functionally reduced
B1: G4-β1C: G4 model protein with β1C splice variant cytoplasmic domain (protein)
chain: GSSHHHHHHSSGLVPRGSHMKLEALEGRLDALEGKLEALEGKLDALEGGGGKLLMIIHDRREFAKFEKEKMNAKWDTSLSVAQPGVQWCDISSLQPLTSRFQQFSCLSLPSTWDYRVKILFIRVP
